About 14,000 (4.5%) of roughly 310,000 compounds showed an effect of 50% or more. The effect is printed as a negative number. Some of the results follow.

We go through 58 molecules from article PMC4336329 (PLoS ONE, 2015).
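Note: peak tail current of the secondary pulse compared with the same well before compound.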

human ether-à-go-go-related gene (hERG) potassium channel, sequence (Q12809 whole entry, looked up): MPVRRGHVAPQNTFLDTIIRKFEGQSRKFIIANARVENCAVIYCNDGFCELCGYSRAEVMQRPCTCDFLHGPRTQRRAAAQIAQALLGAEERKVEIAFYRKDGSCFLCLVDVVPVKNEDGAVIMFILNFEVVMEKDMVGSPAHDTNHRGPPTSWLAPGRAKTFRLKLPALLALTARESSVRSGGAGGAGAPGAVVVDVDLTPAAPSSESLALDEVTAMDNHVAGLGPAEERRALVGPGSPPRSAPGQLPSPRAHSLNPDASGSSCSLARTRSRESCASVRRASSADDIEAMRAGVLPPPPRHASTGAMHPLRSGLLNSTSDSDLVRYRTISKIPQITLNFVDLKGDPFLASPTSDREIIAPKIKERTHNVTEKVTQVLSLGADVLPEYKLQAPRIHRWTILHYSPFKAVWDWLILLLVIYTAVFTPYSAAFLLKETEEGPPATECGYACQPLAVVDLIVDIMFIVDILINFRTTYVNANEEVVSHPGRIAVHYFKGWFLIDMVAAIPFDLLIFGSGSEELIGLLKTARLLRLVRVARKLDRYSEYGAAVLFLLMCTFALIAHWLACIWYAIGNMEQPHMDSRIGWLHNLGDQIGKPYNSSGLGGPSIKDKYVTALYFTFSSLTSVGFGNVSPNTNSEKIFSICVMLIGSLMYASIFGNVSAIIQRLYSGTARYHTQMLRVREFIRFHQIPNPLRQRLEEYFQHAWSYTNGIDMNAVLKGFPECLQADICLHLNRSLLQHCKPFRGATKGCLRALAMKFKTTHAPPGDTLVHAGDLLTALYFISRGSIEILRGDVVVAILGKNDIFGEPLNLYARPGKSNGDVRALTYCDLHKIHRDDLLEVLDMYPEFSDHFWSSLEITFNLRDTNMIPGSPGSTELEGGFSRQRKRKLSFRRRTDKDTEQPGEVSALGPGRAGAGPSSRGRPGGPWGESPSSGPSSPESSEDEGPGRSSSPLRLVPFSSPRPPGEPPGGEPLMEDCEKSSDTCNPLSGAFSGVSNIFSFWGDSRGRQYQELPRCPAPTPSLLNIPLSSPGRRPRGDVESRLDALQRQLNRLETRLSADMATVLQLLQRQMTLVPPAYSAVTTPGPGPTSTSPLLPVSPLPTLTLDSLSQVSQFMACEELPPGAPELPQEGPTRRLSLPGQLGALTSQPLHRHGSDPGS

The experiment concerns the target human ether-à-go-go-related gene (hERG) potassium channel (human, UniProt Q12809). Nature of the experiment: primary screen, population patch clamp on CHO cells stably expressing hERG.
Take `C=CCn1c(O)c(N=NC(=S)Nc2cccc(C)c2)c2ccccc21`: the “hERG current change (%, negative = inhibition) at 10uM” value was 4.29%.

`COC(=O)c1ccc(C(=S)NCC2(N(C)C)CCCCC2)cc1`: the “hERG current change (%, negative = inhibition) at 10uM” value came to 10.9%.

As to `COc1ccc(C2=NOC(C(=O)NCc3ccc(F)cc3)C2)cc1` (stereo not shown), the “hERG current change (%, negative = inhibition) at 10uM” value is listed as -13.4%.

Take `Cc1ccc(Cc2nc(-c3cccnc3)no2)cc1`: the “hERG current change (%, negative = inhibition) at 10uM” value is recorded as -17.8%.

As for `COc1cc(CCC(=O)N2CCN(S(=O)(=O)c3ccc(C)cc3)CC2)cc(OC)c1OC`, the “hERG current change (%, negative = inhibition) at 10uM” value was -14.3%.

`NS(=O)(=O)c1ccc(CCNC(=O)c2cc(-c3cc(Cl)ccc3O)n[nH]2)cc1`: the “hERG current change (%, negative = inhibition) at 10uM” value came out at 16.3%.

Take `CC(=O)c1ccccc1OCC(O)Cn1ccnc1` (stereo not shown): the “hERG current change (%, negative = inhibition) at 10uM” value came to 17.6%.

Regarding `COC(=O)C1=CN(Cc2ccc(OC)cc2)C=C(C(=O)OC)C1c1cc(OC)c(OC)c(OC)c1`, the “hERG current change (%, negative = inhibition) at 10uM” value is reported as -5.68%.

Regarding `CC(=O)c1ccc(N2CCN(CC(O)COC(c3ccccc3)c3ccccc3C)CC2)cc1` (stereo not shown), the “hERG current change (%, negative = inhibition) at 10uM” value is listed as -41%.

Regarding `CC(C)S(=O)(=O)C/C(N)=N/OC(=O)c1cc(Cl)cc(Cl)c1`, the “hERG current change (%, negative = inhibition) at 10uM” value turned out to be 13.9%.

Regarding `CCN(CC)CCCNC(=O)c1cn(C)c2ccc(S(=O)(=O)N(C)C3CCCCC3)cc2c1=O`, the “hERG current change (%, negative = inhibition) at 10uM” value is -24.8%.

In the case of `COC(=O)c1ccc(-c2noc(CN3CCCC(CNC(C)=O)C3)n2)cc1` (stereo not shown), the “hERG current change (%, negative = inhibition) at 10uM” value was 5.19%.

Turning to `C=CCNc1nc(-c2sc(NC(=O)CC)nc2C)cs1`, the “hERG current change (%, negative = inhibition) at 10uM” value is on record as -7.14%.

As for `O=C(COc1ccc(F)cc1)N(c1ccccn1)C1CCCCC1`, the “hERG current change (%, negative = inhibition) at 10uM” value turned out to be 9.96%.

Take `CCOc1ccc(C(=O)C(C)OC(=O)CN2C(=O)NC(C)(C)C2=O)cc1` (stereo not shown): the “hERG current change (%, negative = inhibition) at 10uM” value is recorded as -7.23%.

Regarding `COC(=O)c1ccc(/C=N/NC(=O)CNc2cccc(C)c2)cc1`, the “hERG current change (%, negative = inhibition) at 10uM” value is 0.756%.

As for `COc1ccc(-c2coc3cc(O)cc(O)c3c2=O)cc1`, the “hERG current change (%, negative = inhibition) at 10uM” value is -10.5%.

`Cc1nc(N2CCN(C)CC2)c2c3c(sc2n1)CCCC3`: the “hERG current change (%, negative = inhibition) at 10uM” value is -11.4%.

Regarding `CCn1c(CNC(=O)c2ccc(OC)cc2)nnc1SC`, the “hERG current change (%, negative = inhibition) at 10uM” value was determined as 11.9%.

In the case of `C=CCNC(=O)c1ccc(OC)cc1OC`, the “hERG current change (%, negative = inhibition) at 10uM” value is 7.33%.

Turning to `CCOP(=O)(OCC)C(NC(=O)c1ccccc1)C(Cl)(Cl)Cl` (stereo not shown), the “hERG current change (%, negative = inhibition) at 10uM” value is reported as -5.83%.

`O=C(OCC(=O)N1CCCC1)c1c(Cl)cccc1Cl`: the “hERG current change (%, negative = inhibition) at 10uM” value is 14.6%.

Regarding `COc1ccc(S(=O)(=O)NNC(N)=S)cc1`, the “hERG current change (%, negative = inhibition) at 10uM” value is recorded as 8.85%.

Take `Cc1ccc(CSc2nnc(CC(=O)Nc3ccc(C)cc3)n2C)cc1`: the “hERG current change (%, negative = inhibition) at 10uM” value is recorded as -9.29%.

`NC1=NC2(CCCCC2)n2c(nc3ccccc32)N1`: the “hERG current change (%, negative = inhibition) at 10uM” value is listed as 0.282%.

Turning to `COc1cccc2c1C(=O)CC1C2CCC2CC(=O)CCC21C` (stereo not shown), the “hERG current change (%, negative = inhibition) at 10uM” value is reported as -33.9%.

Regarding `Cc1ccc(NC(=O)CSCC(=O)N2CCOCC2)cc1`, the “hERG current change (%, negative = inhibition) at 10uM” value is 2.51%.

As for `Cc1ccc(SCC(=O)N2CCC(C(N)=O)CC2)cc1`, the “hERG current change (%, negative = inhibition) at 10uM” value was determined as 13.2%.

For the molecule `CC(C)C(=O)NC(c1ccco1)c1c(O)ccc2ccccc12` (stereo not shown), the “hERG current change (%, negative = inhibition) at 10uM” value was 14.1%.

Take `Cc1ccc(CCN2CC(C(=O)NCCCN(C)Cc3ccccc3)CC2=O)cc1` (stereo not shown): the “hERG current change (%, negative = inhibition) at 10uM” value came out at 11.7%.

For the molecule `Nc1cc(=O)[nH]c(=O)n1Cc1ccco1`, the “hERG current change (%, negative = inhibition) at 10uM” value is -1.06%.

As to `CCN(CC)S(=O)(=O)c1ccc(N2CCCC2)c(NC(=O)c2ccc(N3CCCC3=O)cc2)c1`, the “hERG current change (%, negative = inhibition) at 10uM” value is recorded as -46.9%.

For the molecule `O=C(N/N=C/c1cn(-c2ccccc2)nc1-c1ccccc1)c1ccco1`, the “hERG current change (%, negative = inhibition) at 10uM” value was found to be 3.75%.

Regarding `CCNc1nc(C(=O)O)nc(N2CCOCC2)n1`, the “hERG current change (%, negative = inhibition) at 10uM” value is on record as 10.7%.

On to `Cc1ccc(Nc2nnc(SC3CCOC3=O)s2)cc1` (stereo not shown), for which the “hERG current change (%, negative = inhibition) at 10uM” value worked out at 3.04%.

With `Cc1nn(Cc2ccccc2Cl)c2sc(C(=O)OC3CCCC3=O)cc12` (stereo not shown), the “hERG current change (%, negative = inhibition) at 10uM” value is given as -4.19%.

On to `CCN(CC)C(=O)C1CCCN(c2ncnc3c2cnn3-c2cccc(C)c2)C1` (stereo not shown), for which the “hERG current change (%, negative = inhibition) at 10uM” value is listed as -24.3%.

For `Cc1ccc(SCC(=O)OC(C)C(=O)NCc2ccccc2)cc1` (stereo not shown), the “hERG current change (%, negative = inhibition) at 10uM” value is reported as -1.8%.

As to `Cc1csc(SCC(=O)Nc2c(C)n(C)n(-c3ccccc3)c2=O)n1`, the “hERG current change (%, negative = inhibition) at 10uM” value came out at 14.8%.

As to `CCOC(=O)C1(CCOc2ccccc2)CCN(Cc2cccc(OC)c2O)CC1`, the “hERG current change (%, negative = inhibition) at 10uM” value was -70.5%.

`CC(C)OCCCNC(=O)Cn1ccc2cc(S(=O)(=O)N3CCCCCC3)ccc21`: the “hERG current change (%, negative = inhibition) at 10uM” value was -28.6%.

On to `CCOC(=O)c1ccc(S(=O)(=O)N2CCC(N3CCCCC3)CC2)cc1`, for which the “hERG current change (%, negative = inhibition) at 10uM” value is given as -12.6%.

As to `O=C(Nc1nc2ccccc2[nH]1)c1ccc(F)cc1`, the “hERG current change (%, negative = inhibition) at 10uM” value is given as -4.63%.

Take `CCc1ccc(OC(=O)c2cncc(Br)c2)cc1`: the “hERG current change (%, negative = inhibition) at 10uM” value came to 17.1%.

Consider `Cc1cccc(NC(=O)C2CCCN2C(=O)Oc2ccccc2)c1` (stereo not shown), for which the “hERG current change (%, negative = inhibition) at 10uM” value was -8.43%.

Turning to `Cc1ccc(CN2C(=O)C3CCCN3c3ncccc32)cc1` (stereo not shown), the “hERG current change (%, negative = inhibition) at 10uM” value worked out at 5.08%.

For `Cc1ccc(N2C3=C(C(=O)CC(C)(C)C3)C(c3cn(C)nc3C)C3=C2CC(C)(C)CC3=O)cc1`, the “hERG current change (%, negative = inhibition) at 10uM” value is -10.9%.

On to `CCCc1cc(C(=O)Nc2ccccc2C(=O)OC)no1`, for which the “hERG current change (%, negative = inhibition) at 10uM” value is on record as 7.76%.

`COCc1ccc(C(=O)N2CCCC(Nc3ccc(C(C)C)cc3)C2)s1` (stereo not shown): the “hERG current change (%, negative = inhibition) at 10uM” value is given as -19.5%.

As to `O=C(Nc1ccc2nc(-c3ccccc3)oc2c1)c1ccco1`, the “hERG current change (%, negative = inhibition) at 10uM” value is recorded as 3.37%.

In the case of `CC1CC(C)CN(S(=O)(=O)N2CCCC(C(=O)NCCCN3CCOCC3)C2)C1` (stereo not shown), the “hERG current change (%, negative = inhibition) at 10uM” value turned out to be 19.1%.

For `COc1cc(CN2CCC(C(=O)NC3CCCC3)CC2)ccc1O.O=C(O)C(=O)O`, the “hERG current change (%, negative = inhibition) at 10uM” value came to 7.8%.

As for `CN(CCCC1CCCC1)C(=O)CC1C(=O)NCCN1Cc1ccc(F)cc1` (stereo not shown), the “hERG current change (%, negative = inhibition) at 10uM” value is -5.31%.

Turning to `Cc1cccc(N2CCN(C(=O)C(NS(=O)(=O)c3cccs3)c3ccccc3)CC2)c1C` (stereo not shown), the “hERG current change (%, negative = inhibition) at 10uM” value is on record as -3.22%.

Regarding `COc1cccc(NC(=O)CCCCCN2C(=O)[C@@H]3Cc4ccccc4CN3C2=O)c1`, the “hERG current change (%, negative = inhibition) at 10uM” value was -37.7%.

For the molecule `N#Cc1ccccc1NC(=O)c1ccccc1OCC(=O)NCc1ccco1`, the “hERG current change (%, negative = inhibition) at 10uM” value was found to be 3.8%.

For `CC1Cc2ccccc2N1C(=O)Cn1nnc(-c2ccccc2NC(=O)C2CCC2)n1` (stereo not shown), the “hERG current change (%, negative = inhibition) at 10uM” value is given as -18.3%.

With `CS(=O)(=O)NNC(=O)c1sccc1OCc1ncc(C(F)(F)F)cc1Cl`, the “hERG current change (%, negative = inhibition) at 10uM” value was 11.3%.
